About 6,400 (1.6%) of roughly 410,000 compounds were called active. Inconclusive results, whose numbers are uncertain, are shown with a selection of clear calls. Calls come from the whole dose curve; as a rule, active = well fitted inhibition curve with a large enough effect; inconclusive = small, poorly fitted or top-dose-only effect; inactive = no such curve, though single readings can be large or run the other way. Potencies beside an inconclusive call are fits to weak or partial responses and may not hold up.
These compounds were tested against Glucagon-like peptide 1 receptor (Homo sapiens) (UniProt P43220) (assay: qHTS of GLP-1 Receptor Inverse Agonists (Inhibition Mode)). Conditions: HEK293 GLP-1R CRE-luciferase, luminescence, 24 h, GLP-1R form is constitutively active; activity change, negative = inhibition: at 38.3 µM (top of the series) unless noted.
Chain of UniProt P43220 (P43220 whole entry, looked up): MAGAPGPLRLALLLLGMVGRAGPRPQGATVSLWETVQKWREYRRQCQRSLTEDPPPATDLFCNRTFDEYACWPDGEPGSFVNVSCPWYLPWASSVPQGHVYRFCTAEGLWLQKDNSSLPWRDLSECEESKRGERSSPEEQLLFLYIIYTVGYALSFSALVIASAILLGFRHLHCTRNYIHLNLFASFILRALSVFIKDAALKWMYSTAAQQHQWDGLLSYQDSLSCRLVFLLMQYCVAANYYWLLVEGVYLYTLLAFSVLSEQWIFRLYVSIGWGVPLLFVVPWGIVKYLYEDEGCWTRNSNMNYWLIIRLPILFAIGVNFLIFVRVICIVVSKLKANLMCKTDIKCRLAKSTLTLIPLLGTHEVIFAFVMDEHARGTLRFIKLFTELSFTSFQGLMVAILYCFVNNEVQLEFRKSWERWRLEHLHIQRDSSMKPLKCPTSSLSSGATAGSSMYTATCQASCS
How it was run: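 qHTS in 1536-well format: reporter HEK293 cells expressing constitutive GLP-1R activity in DMEM + 10% Nu serum, 24 hr with compounds at 37 deg C, luminescence read after 12 min with detection reagent.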
% is set by controls: 0 for no effect and ±100 for the full control effect; potency is the fitted concentration of half-maximal effect; tags give direction and shape of the fitted curve.
Note: nearly all actives have a fitted effect of over 55% in size.

Row | Structure (SMILES) | Potency | activity change, negative = inhibition
1 | CCc1nc(NCCN2CCOCC2)c(C#N)c2c1CCCC2 | inconclusive: 28.2 µM [inhibitor, single point] | –
2 | CCOCCCNC(=O)N[C@@H](C)C(=O)OC | inconclusive: 11.2 µM [inhibitor, single point] | –
3 | O=C1NC[C@@H](CCCCN2C[C@H](Cc3ccc(O)cc3)N(CCC3CCCCC3)C(=O)C2=O)N(CC2CCCCC2)C1=O | inconclusive: 20 µM [inhibitor, partial curve, poor fit] | –
4 | O=C(NCc1cccnc1)C1CCC(CNS(=O)(=O)c2ccc(Cl)cc2)CC1 (stereo not given) | – | inconclusive: -35.1% [inhibitor] [at 7.66 µM]
5 | Cc1ccc(C(=O)N/C(=C\c2ccc(-c3cc(Cl)ccc3Cl)o2)C(=O)NCc2cccnc2)cc1 | inconclusive: 28.2 µM [inhibitor, single point] | –
6 | COc1ccccc1NC(=O)C1=C(C)Nc2nc(SCc3ccccc3)nn2C1c1cccc(O)c1 (stereo not given) | inconclusive: 15.8 µM [inhibitor, single point] | –
7 | Cc1ccc(C)c(-c2csc(NC(=O)C3=COCCO3)n2)c1 | inconclusive: 11.2 µM [inhibitor, single point] | –
8 | Clc1nssc1=Nc1ccccc1 | – | inactive: 0.592% [at 0.307 µM]
9 | Cc1c(Cl)cccc1Nc1nc(N)nc(CSCCO)n1 | inactive | –
10 | CCCCC(CCc1ccccn1)C(=O)c1ccccc1 (stereo not given) | inconclusive: 10 µM [inhibitor, partial curve] | –
11 | COc1ccc(-c2coc3c(C(=O)NCC4CC4)cccc23)c(C)c1 | inconclusive: 11.2 µM [inhibitor, single point] | –
12 | Cc1ccc2cc3cc(C(=O)N4CCCCCC4)oc3nc2c1 | inconclusive: 6.31 µM [inhibitor, partial curve, poor fit] | –
13 | O=C(Nc1ccc(F)c(Cl)c1)C1CC(=O)N(Cc2ccccc2)C1 (stereo not given) | inconclusive: 8.91 µM [inhibitor, partial curve, poor fit] | –
14 | CCN1CCN(CCOc2cccc(Oc3ccccc3)c2)CC1 | inconclusive: 10 µM [inhibitor, partial curve, poor fit] | –
15 | CCOc1ccc(OCCNC(=O)c2oc3ccccc3c2COC)cc1 | inconclusive: 8.91 µM [inhibitor, partial curve, poor fit] | –
16 | O=C(CNS(=O)(=O)c1ccc(Br)s1)NC1CCCc2ccccc21 (stereo not given) | inconclusive: 8.91 µM [inhibitor, partial curve, poor fit] | –
17 | CN(CCOc1ccc(Br)cc1)C(=O)CNC(=O)c1ccc2ccccc2c1 | inconclusive: 31.6 µM [inhibitor, partial curve, poor fit] | –
18 | CCn1c(Cc2cccc3ccccc23)nnc1SCC(=O)Nc1nccs1 | inconclusive: 31.6 µM [inhibitor, single point] | –
19 | Cc1cc(C)n(-c2c(F)c(F)c(COC(=O)c3ccccc3)c(F)c2F)n1 | inconclusive: 25.1 µM [inhibitor, single point] | –
20 | CN(C(=O)c1ccccc1C(=O)OCC(=O)c1ccc(Br)cc1)c1ccccc1 | inconclusive: 12.6 µM [inhibitor, partial curve, poor fit] | –

Row | Structure (SMILES) | Potency | activity change, negative = inhibition
21 | Cc1ccc(-c2nn(-c3ccc(F)cc3)cc2C(=O)NCC(c2cccs2)N2CCOCC2)cc1 (stereo not given) | inconclusive: 7.94 µM [inhibitor, partial curve, poor fit] | –
22 | COc1ccc(C(C(=O)NC2CCCCC2)N(C(=O)CCl)c2ccc(OC)cc2)cc1 (stereo not given) | inconclusive: 2 µM [inhibitor, full curve, poor fit] | –
23 | CC1Oc2ccccc2N(Cc2ccccc2Cl)C1=O (stereo not given) | inconclusive: 28.2 µM [inhibitor, single point] | –
24 | Cc1cccc(NC(=O)CN2C(=O)C(c3ccccc3)=NC23CCC(C)CC3)c1 (stereo not given) | inconclusive: 22.4 µM [inhibitor, single point] | –
25 | O=C(Nc1ccc2nsnc2c1)c1ccc2c(c1)OCO2 | inactive | –
26 | COc1ccc(NC(=O)N2CCC(Cc3ccccc3)CC2)cc1 | inconclusive: 17.8 µM [inhibitor, partial curve, poor fit] | –
27 | Cc1ccc(S(=O)(=O)NC2CCCc3ccccc32)cc1C (stereo not given) | active: 5.01 µM | –
28 | COc1ccc(-c2cc(C(F)(F)F)nc(N3CCN(C)CC3)n2)cc1 | inconclusive: 6.31 µM [inhibitor, partial curve, poor fit] | –
29 | CC12CC(NC(=O)N1c1cccc(C(=O)Nc3ncn[nH]3)c1)c1ccccc1O2 (stereo not given) | inactive | –
30 | CCOC(=O)c1nnn(CC(=O)N2N=C(c3cccc4ccccc34)CC2c2ccccc2)c1C(=O)OCC (stereo not given) | inactive | –
31 | Cc1cc(C)c(C(=O)N(CCN(C)C)CC2CCCN(Cc3ccccc3F)C2)o1 (stereo not given) | inconclusive: 28.2 µM [inhibitor, single point] | –
32 | CCCC(NCC(=O)Nc1ccccc1C(=O)NC1CC1)c1ccccc1 (stereo not given) | inconclusive: 10 µM [inhibitor, partial curve, poor fit] | –
33 | CC(C)(C)C(=O)NC(c1ccccc1)c1c(O)ccc2ccccc12 (stereo not given) | inconclusive: 1.78 µM [inhibitor, full curve, poor fit] | –
34 | CCN(CC)c1ccc(NC(=O)CN2CCN(c3ccccc3F)CC2)cc1 | inconclusive: 12.6 µM [inhibitor, partial curve, poor fit] | –
35 | Clc1cccc(Cc2c(-c3cccc(Cl)c3)nc3ccc(Br)cn23)c1 | inconclusive: 28.2 µM [inhibitor, single point] | –
36 | Cc1[nH]c2ccc(Br)cc2c1CCNC(=O)c1cc2ccccc2oc1=O | inactive | –
37 | CSc1ccccc1C(=O)N(C)C(c1ccccc1)c1ccccc1 | active: 8.91 µM | –
38 | COc1ccc(C)cc1NC(=O)C(C)N1CCOCC1 (stereo not given) | inconclusive: 0.631 µM [inhibitor, full curve, poor fit] | –
39 | CCOc1ccc(C2=NC(c3cccs3)=Nc3ccc(CC)cc3N2)cc1OCC | inconclusive: 22.4 µM [inhibitor, single point] | –
40 | CC(=O)NN1C(=O)c2ccc3c4c(ccc(c24)C1=O)C(=O)N(NC(C)=O)C3=O | inconclusive: 11.2 µM [inhibitor, single point] | –

Source: PubChem BioAssay AID624417 (National Center for Advancing Translational Sciences (NCATS), 2012)
